From ChEMBL document CHEMBL4888484, “Replenishing the malaria drug discovery pipeline: Screening and hit evaluation of the MMV Hit Generation Library 1 (HGL1) against asexual blood stage Plasmodium falciparum ,using a nano luciferase reporter read-out” (2022)
About 540 (0.36%) of roughly 150,000 compounds showed an effect of 50% or more. The list shows a part of the results.

Each compound was assayed on Plasmodium falciparum (assay: Primary screen in NF54 nanoGlo assay, in single point, at 2uM, 72h; a lower Z score goes with more inhibition). Conditions: timepoint 72 hour.
Type: functional, Erythrocyte

SMILES	% Inhibition [%]	Z score
CCN(CC)c1nc2cc(C(=O)NCc3ccccc3OC)ccc2c(=O)n1Cc1ccccc1	3	-0.64
Cc1cnc(C)c(-c2ccc(C(=O)NCCN3CCCC[C@@H]3CO)cc2)n1	-10	1.39
Cc1nc[nH]c1CN1C[C@H]2CC[C@@H](C1)N(C(=O)c1ncc(F)cc1F)C2	0	0.04
COCC(=O)N(C1CCOCC1)[C@H]1CCCN(C(=O)c2ccc3ccccc3n2)C1	-7	1.1
Cn1cc(S(=O)(=O)N2CCCCC2)cc1C(=O)NCCc1cccc(Cl)c1	-12	1.59
CC1(C)CC[C@H](CNC(=O)c2cnn(-c3ccc(F)cc3)n2)O1	32	-0.33
CC(C)[C@H](C)N(CC(=O)NCCc1ccc(S(N)(=O)=O)cc1)C1CC1	-11	1.4
C[C@H](NC(=O)Nc1nc2ccccn2n1)C1CCOCC1	-4	0.87
Cc1cccc(C(=O)N2C[C@@H]3CC[C@H]2CN(C(=O)c2cccnc2)C3)c1O	6	-0.92
Cc1nccnc1-c1ccn(CC(=O)Nc2cc(C(C)C)nn2C)n1	-7	1.39
Cc1ccc2c(-c3cnc(N)s3)c[nH]c2c1	-7	0.76
COc1c(-c2noc(C3CCNCC3)n2)cc2c(c1OC)OCO2	-5	0.63
O=C(Cc1cccc2ccccc12)N1CCN(c2ccccn2)CC1	1	-0.08
Cc1nn(CC(=O)N2C[C@H](C)Oc3cc(F)c(F)cc32)c(=O)n1C	-3	0.5
O=C(NCc1ccccc1)c1nn[nH]c1Nc1cccc(Cl)c1	-5	0.79
Cc1cnc(N)nc1N1CCC(Nc2ccccn2)CC1	19	-2.53
O=S(=O)(c1ccc(C2CCCCC2)cc1)N1CCNCC1	-8	0.71
CCNC(=O)NCC[C@H]1CN(C2CCCCCC2)CCO1	0	-0.04
CNS(=O)(=O)C[C@H]1CCCN1c1nnc(C)c(C)c1C#N	1	-0.13
COc1ccnc(N2CCn3ccnc3C2)n1	7	-1.54
COc1cccc(N2CCN(C(=O)c3ccc(C)c(-n4nnc5cccnc54)c3)CC2)c1	-10	1.87

SMILES	% Inhibition [%]	Z score
CN(CC1CCC1)C(=O)NCCOCC1CC1	-5	0.46
CC(C)C(=O)N1CCCN(C(=O)C2CC3CCC2C3)CC1 (centres undefined)	1	-0.18
Cc1cccc(-c2nnc3c4ccc(Cl)cc4nc(N4CCN(Cc5cccc(F)c5)CC4)n23)c1	-13	1.19
N#Cc1ccnc(N2CC[C@H]3[C@H](CCC(=O)N3CCc3c[nH]cn3)C2)c1	-8	1.43
COCCCN(Cc1ccc(OC)cc1)c1ncnc2oc(C)nc12	10	-1.31
CCCc1nnc(NC(=O)N2CCC3CCCC32)s1 (centres undefined)	-5	0.7
O=C(NCCCN1CCCC1)[C@H]1CCCN(c2nc3cccnc3s2)C1	-26	2.27
CN1CCC(NC(=O)c2cc(-c3ccccc3Cl)nc3ccccc23)CC1	6	-0.79
CCn1ccnc1[C@H]1CCCN(C(=O)c2ccc(N(C)C)cc2)C1	-8	1.12
Cn1cc(C(=O)N2CCCO2)c(C(C)(C)C)n1	-6	0.58
Cc1ccc(C[C@H](NC(=O)c2cc(C#N)c[nH]2)c2cccnc2)cc1	-13	1.74
COCC1(F)CCN(Cc2c(-c3ccc(C)cc3C)nc3ccccn23)CC1	-7	0.9
COC[C@H]1[C@@H](NC(=O)c2cc(C)nc(C)n2)[C@H]2CCO[C@H]21	-4	0.46
Cc1ccc(-c2noc(CCC(=O)NCc3cccnc3)n2)cc1	-17	1.97
Cc1noc(C)c1CC(=O)N[C@@H](C)C1CC1	6	-1.07
COc1ccc(-c2ccnc(N[C@H]3CO[C@H]4[C@@H]3OC[C@H]4OCC(=O)N(C)C)n2)cc1	-7	0.86
OCC#Cc1csc(CNCCN2CCCC[C@@H]2CO)c1	-5	0.93
CN1C(=O)CCCC[C@H]1C(=O)N1CC=C(c2ccccc2)CC1	-9	1.04
CCn1ccc(CN2CCC3(CCC(=O)N(C4CC4)C3)CC2)n1	12	-1.64
Clc1ccc(CNc2nc(N3CCOCC3)nc(N3CCOCC3)n2)cc1	-3	0.41
Cn1cc(NC(=O)c2ccc3nncn3c2)c(C(F)(F)F)n1	0	-0.06
